# The other results are listed elsewhere or left out.
# B1: Gal 2 (Homo sapiens), P05162 (protein)
# chain: MTGELEVKNMDMKPGSTLKITGSIADGTDGFVINLGQGTDKLNLHFNPRFSESTIVCNSLDGSNWGQEQREDHLCFSPGSEVKFTVTFESDKFKVKLPDGHELTFPNRLGHSHLSYLSVRGGFNMSSFKLKE
# Legend:
# Assay in all cases: glycan array binding signal (z-score within array); higher = stronger binding
# Conditions in all cases: glycan notation: IUPAC condensed, linker removed
# [1] = target: Fuc(a1-2)Gal(b1-4)[Fuc(a1-3)]GlcNAc(b1-3)GalNAc
# Method in brief: (§1)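 Glycan array binding is given as a within-array Z-score, which can be read as non-binding when negative. The arrays, 3228 of them, came from the Consortium for Functional Glycomics database and were retained only where the protein sequence was available. Z-scores were averaged across arrays of the same protein sequence at different concentrations or buffers and across linkers.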
# [2] = target: Fuc(a1-2)Gal(b1-4)[Fuc(a1-3)]GlcNAc(b1-3)[Neu5Ac(a2-6)Gal(b1-4)GlcNAc(b1-6)]Gal(b1-4)Glc
# Method in brief: as §1
# [3] = target: Fuc(a1-2)Gal3S(b1-4)GlcNAc
# Method in brief: as §1
# [4] = target: Fuc(a1-2)Gal6S(b1-3)GlcNAc
# Method in brief: as §1
# [5] = target: Fuc(a1-2)Gal6S(b1-3)GlcNAc6S
# Method in brief: as §1
# Fuc(a1-2)Gal6S(b1-4)Glc = target: Fuc(a1-2)Gal6S(b1-4)Glc
# Method in brief: as §1
# [6] = target: Fuc(a1-2)Gal6S(b1-4)Glc6S
# Method in brief: as §1
# [7] = target: Fuc(a1-2)Gal6S(b1-4)GlcNAc
# Method in brief: as §1
# Fuc(a1-2)GlcNAc = target: Fuc(a1-2)GlcNAc
# Method in brief: as §1
# Fuc(a1-2)[Gal(a1-3)]Gal = target: Fuc(a1-2)[Gal(a1-3)]Gal
# Method in brief: as §1
# [8] = target: Fuc(a1-2)[Gal(a1-3)]Gal(b1-3)GalNAc
# Method in brief: as §1
# [9] = target: Fuc(a1-2)[Gal(a1-3)]Gal(b1-3)GalNAc(b1-3)Gal(a1-4)Gal(b1-4)Glc
# Method in brief: as §1
# [10] = target: Fuc(a1-2)[Gal(a1-3)]Gal(b1-3)GlcNAc
# Method in brief: as §1
# [11] = target: Fuc(a1-2)[Gal(a1-3)]Gal(b1-3)GlcNAc(b1-2)Man(a1-3)[Fuc(a1-2)[Gal(a1-3)]Gal(b1-3)GlcNAc(b1-2)Man(a1-6)]Man(b1-4)GlcNAc(b1-4)GlcNAc
# Method in brief: as §1
# [12] = target: Fuc(a1-2)[Gal(a1-3)]Gal(b1-3)GlcNAc(b1-2)Man(a1-3)[Fuc(a1-2)[Gal(a1-3)]Gal(b1-3)GlcNAc(b1-2)Man(a1-6)]Man(b1-4)GlcNAc(b1-4)[Fuc(a1-6)]GlcNAc
# Method in brief: as §1
# [13] = target: Fuc(a1-2)[Gal(a1-3)]Gal(b1-3)GlcNAc(b1-3)GalNAc
# Method in brief: as §1
# [14] = target: Fuc(a1-2)[Gal(a1-3)]Gal(b1-3)GlcNAc(b1-6)GalNAc
# Method in brief: as §1
# [15] = target: Fuc(a1-2)[Gal(a1-3)]Gal(b1-4)Glc
# Method in brief: as §1
# [16] = target: Fuc(a1-2)[Gal(a1-3)]Gal(b1-4)GlcNAc
# Method in brief: as §1
# [17] = target: Fuc(a1-2)[Gal(a1-3)]Gal(b1-4)GlcNAc(b1-2)Man
# Method in brief: as §1
# [18] = target: Fuc(a1-2)[Gal(a1-3)]Gal(b1-4)GlcNAc(b1-2)Man(a1-3)[Fuc(a1-2)[Gal(a1-3)]Gal(b1-4)GlcNAc(b1-2)Man(a1-6)]Man(b1-4)GlcNAc(b1-4)GlcNAc
# Method in brief: as §1
# [19] = target: Fuc(a1-2)[Gal(a1-3)]Gal(b1-4)GlcNAc(b1-2)Man(a1-3)[Fuc(a1-2)[Gal(a1-3)]Gal(b1-4)GlcNAc(b1-2)Man(a1-6)]Man(b1-4)GlcNAc(b1-4)[Fuc(a1-6)]GlcNAc
# Method in brief: as §1
# [20] = target: Fuc(a1-2)[Gal(a1-3)]Gal(b1-4)GlcNAc(b1-3)GalNAc
# Method in brief: as §1
# [21] = target: Fuc(a1-2)[Gal(a1-3)]Gal(b1-4)GlcNAc(b1-6)GalNAc
# Method in brief: as §1
# [22] = target: Fuc(a1-2)[Gal(a1-3)]Gal(b1-4)[Fuc(a1-3)]Glc
# Method in brief: as §1
# [23] = target: Fuc(a1-2)[Gal(a1-3)]Gal(b1-4)[Fuc(a1-3)]GlcNAc
# Method in brief: as §1
# [24] = target: Fuc(a1-2)[Gal(a1-3)]Gal(b1-4)[Fuc(a1-3)]GlcNAc(b1-3)GalNAc
# Method in brief: as §1
# [25] = target: Fuc(a1-2)[Gal(a1-4)]Gal(b1-4)GalNAc
# Method in brief: as §1
# [26] = target: Fuc(a1-2)[Gal(a1-4)]Gal(b1-4)GlcNAc
# Method in brief: as §1
# [27] = target: Fuc(a1-2)[GalNAc(a1-3)]Gal
# Method in brief: as §1
# [28] = target: Fuc(a1-2)[GalNAc(a1-3)]Gal(b1-3)GalNAc(a1-3)[Fuc(a1-2)]Gal(b1-4)GlcNAc
# Method in brief: as §1
# [29] = target: Fuc(a1-2)[GalNAc(a1-3)]Gal(b1-3)GalNAc(b1-3)Gal(a1-4)Gal(b1-4)Glc
# Method in brief: as §1
# [30] = target: Fuc(a1-2)[GalNAc(a1-3)]Gal(b1-3)GlcNAc
# Method in brief: as §1
# [31] = target: Fuc(a1-2)[GalNAc(a1-3)]Gal(b1-3)GlcNAc(b1-2)Man(a1-3)[Fuc(a1-2)[GalNAc(a1-3)]Gal(b1-3)GlcNAc(b1-2)Man(a1-6)]Man(b1-4)GlcNAc(b1-4)GlcNAc
# Method in brief: as §1
# [32] = target: Fuc(a1-2)[GalNAc(a1-3)]Gal(b1-3)GlcNAc(b1-2)Man(a1-3)[Fuc(a1-2)[GalNAc(a1-3)]Gal(b1-3)GlcNAc(b1-2)Man(a1-6)]Man(b1-4)GlcNAc(b1-4)[Fuc(a1-6)]GlcNAc
# Method in brief: as §1
# [33] = target: Fuc(a1-2)[GalNAc(a1-3)]Gal(b1-3)GlcNAc(b1-3)GalNAc
# Method in brief: as §1
# [34] = target: Fuc(a1-2)[GalNAc(a1-3)]Gal(b1-3)GlcNAc(b1-6)GalNAc
# Method in brief: as §1
# [35] = target: Fuc(a1-2)[GalNAc(a1-3)]Gal(b1-4)Glc
# Method in brief: as §1
# [36] = target: Fuc(a1-2)[GalNAc(a1-3)]Gal(b1-4)GlcNAc
# Method in brief: as §1
# [37] = target: Fuc(a1-2)[GalNAc(a1-3)]Gal(b1-4)GlcNAc(b1-2)Man
# Method in brief: as §1
# [38] = target: Fuc(a1-2)[GalNAc(a1-3)]Gal(b1-4)GlcNAc(b1-2)Man(a1-3)[Fuc(a1-2)[GalNAc(a1-3)]Gal(b1-4)GlcNAc(b1-2)Man(a1-6)]Man(b1-4)GlcNAc(b1-4)GlcNAc
# Method in brief: as §1
# [39] = target: Fuc(a1-2)[GalNAc(a1-3)]Gal(b1-4)GlcNAc(b1-2)Man(a1-3)[Fuc(a1-2)[GalNAc(a1-3)]Gal(b1-4)GlcNAc(b1-2)Man(a1-6)]Man(b1-4)GlcNAc(b1-4)[Fuc(a1-6)]GlcNAc
# Method in brief: as §1
# [40] = target: Fuc(a1-2)[GalNAc(a1-3)]Gal(b1-4)GlcNAc(b1-3)Gal(b1-4)GlcNAc
# Method in brief: as §1
# [41] = target: Fuc(a1-2)[GalNAc(a1-3)]Gal(b1-4)GlcNAc(b1-3)Gal(b1-4)GlcNAc(b1-3)Gal(b1-4)GlcNAc
# Method in brief: as §1
# [42] = target: Fuc(a1-2)[GalNAc(a1-3)]Gal(b1-4)GlcNAc(b1-3)GalNAc
# Method in brief: as §1
binder,measurement,setting,value
B1,glycan array binding signal (z-score),[1],-0.121
same,glycan array binding signal (z-score),[2],-0.296
same,glycan array binding signal (z-score),[3],-0.17
same,glycan array binding signal (z-score),[4],0.007
same,glycan array binding signal (z-score),[5],0.066
same,glycan array binding signal (z-score),Fuc(a1-2)Gal6S(b1-4)Glc,-0.205
same,glycan array binding signal (z-score),[6],-0.193
same,glycan array binding signal (z-score),[7],-0.248
same,glycan array binding signal (z-score),Fuc(a1-2)GlcNAc,-0.39
same,glycan array binding signal (z-score),Fuc(a1-2)[Gal(a1-3)]Gal,-0.238
same,glycan array binding signal (z-score),[8],-0.267
same,glycan array binding signal (z-score),[9],-0.171
same,glycan array binding signal (z-score),[10],0.994
same,glycan array binding signal (z-score),[11],-0.193
same,glycan array binding signal (z-score),[12],-0.254
same,glycan array binding signal (z-score),[13],-0.275
same,glycan array binding signal (z-score),[14],-0.179
same,glycan array binding signal (z-score),[15],1.31
same,glycan array binding signal (z-score),[16],2.52
same,glycan array binding signal (z-score),[17],0.237
same,glycan array binding signal (z-score),[18],0.167
same,glycan array binding signal (z-score),[19],8.45
same,glycan array binding signal (z-score),[20],-0.029
same,glycan array binding signal (z-score),[21],-0.249
same,glycan array binding signal (z-score),[22],-0.139
same,glycan array binding signal (z-score),[23],-0.142
same,glycan array binding signal (z-score),[24],-0.233
same,glycan array binding signal (z-score),[25],-0.44
same,glycan array binding signal (z-score),[26],-0.264
same,glycan array binding signal (z-score),[27],-0.234
same,glycan array binding signal (z-score),[28],-0.233
same,glycan array binding signal (z-score),[29],-0.065
same,glycan array binding signal (z-score),[30],3.75
same,glycan array binding signal (z-score),[31],1.32
same,glycan array binding signal (z-score),[32],-0.192
same,glycan array binding signal (z-score),[33],-0.072
same,glycan array binding signal (z-score),[34],1.92
same,glycan array binding signal (z-score),[35],1.98
same,glycan array binding signal (z-score),[36],5.89
same,glycan array binding signal (z-score),[37],13.5
same,glycan array binding signal (z-score),[38],0.792
same,glycan array binding signal (z-score),[39],1.69
same,glycan array binding signal (z-score),[40],0.862
same,glycan array binding signal (z-score),[41],-0.161
same,glycan array binding signal (z-score),[42],0
